Out of some 150,000 compounds screened, about 540 (0.36%) showed an effect of 50% or more. This is one part of the list.
Tested on: Plasmodium falciparum
Test: Primary screen in NF54 nanoGlo assay, in single point, at 2uM, 72h; a lower Z score goes with more inhibition
Type: functional, Erythrocyte
Conditions: timepoint 72 hour

| Structure (SMILES) | % Inhibition [%] | Z score |
| --- | --- | --- |
| CCCc1cc(CNCc2ccc(F)cc2OC)on1 | -16 | 1.76 |
| OCCC[C@@H]1CN(Cc2cccc3nonc23)CC[C@@H]1N1CCOCC1 | -8 | 1.54 |
| CC(O)C1CN(C(=O)Nc2ncc(C3CCCCC3)s2)CCO1 (stereo not given) | 31 | -3.51 |
| N#Cc1ccc(C(=O)N(CCc2cccc(F)c2)C2CC2)nc1 | -19 | 2.58 |
| COc1cccc(C(=O)O[C@@H](C)C(C)(C)C#N)n1 | -1 | 0.09 |
| CC(C)Cc1ccc(CN(C)C[C@H]2COCCO2)s1 | -8 | 1.74 |
| Cc1cc(C(=O)NCCc2ccccc2)n2nc(-c3ccccc3)cc2n1 | 0 | -0.07 |
| CCc1c(C)noc1NC(=O)CCc1cccnc1 | -5 | 0.64 |
| O=C(N1CCOCC1)N1CCC[C@H](Cc2nc(-c3ccccc3F)no2)C1 | 11 | -1.48 |
| CN(C[C@@]12CCC[C@@H]1OCC2)C(=O)NCc1nccs1 | -4 | 0.75 |
| CC[C@H]1C(=O)NCCN1C(=O)c1cccc2ccccc12 | 1 | -0.07 |
| CC(C)(C)OC(=O)NCC1(CO)CC1 | -2 | 0.22 |
| CN(C)c1cccc(CCC(=O)N(CC#N)c2ccccc2)c1 | -3 | 0.28 |
| CC(C)Oc1ccccc1NS(=O)(=O)N(C)C(C)C | -8 | 0.95 |
| CC(C)c1nc(-c2cccc(N3CCNC3=O)c2)n(-c2cccnc2)n1 | -8 | 0.91 |
| O=C(Nc1nc(N2CCOCC2)ns1)c1cc2ccccc2[nH]1 | -10 | 1.56 |
| COc1ccc(Cl)cc1[C@H](C)NCC(C)(C)NS(C)(=O)=O | -10 | 1.43 |
| Cc1ccc(-n2nc(C)cc2NC(=O)[C@H]2OCCO[C@H]2C)nn1 | -3 | 0.51 |
| O=C(NCCN1CCOCC1)c1ccc(-c2c(F)cccc2F)s1 | -4 | 0.8 |
| CC1CCCC(C)C1N(C)C(=O)CCN (stereo not given) | -13 | 1.21 |
| Cc1cn2cc(C(=O)NCCc3nc4c(s3)CCC4)ccc2n1 | -1 | 0.13 |
| NC(=O)CCn1cc(-c2cc(F)cc3cccnc23)cn1 | -12 | 2.22 |
| Cc1ccc(CN2CCc3nc(N4CCCC4)ncc3C2)cc1C | -8 | 1.05 |
| CC(C)[C@H]1COC(=O)N1Cc1ccc(Cl)c(Cl)c1 | -11 | 1.57 |
| Cc1noc2ncnc(N3CCn4nc(CCC(=O)NC5CC5)cc4C3)c12 | -13 | 1.83 |
| CC(C)CN(Cc1ccsc1)C(=O)Cc1ccc(O)c(Cl)c1 | -10 | 0.95 |
| COC(CS(=O)(=O)Nc1ncn(-c2ccc(F)cc2)n1)C1CCOC1 (stereo not given) | -15 | 2.73 |
| Cn1c(-c2nc(-c3ccncc3)nn2CC(F)(F)F)cc(=O)n(C)c1=O | -23 | 4 |

| Structure (SMILES) | % Inhibition [%] | Z score |
| --- | --- | --- |
| CC1CCC2(CC1)NC(=O)N(CN1CCN(Cc3ccc(Cl)s3)CC1)C2=O (stereo not given) | -12 | 2.32 |
| COc1cn(CC(=O)NC2CCN(C(=O)c3cc4ccccc4[nH]3)CC2)c(C)cc1=O | 5 | -0.62 |
| O=C(c1ccc2nccn2c1)N1CCN(c2cnccn2)CC1 | -18 | 3.91 |
| NC(=O)C1CCN(c2ccc(NC(=O)CCC3CCCC3)cc2S(=O)(=O)N2CCOCC2)CC1 | -6 | 1.11 |
| CC(C)c1ccc(NC(=O)O[C@@H]2CO[C@H]3[C@@H]2OC[C@@H]3NC(=O)c2ccccc2)cc1 | 25 | -2.86 |
| COc1ccc(CNc2nnc(-c3ccc4c(c3)CCC4)c3ccccc23)cc1 | 0 | -0.05 |
| CCN(CCn1cccn1)c1cc([C@H]2CCOC2)nc(N2CC(O)C2)n1 | -8 | 1.47 |
| COC(=O)[C@H]1CC[C@H](C(=O)NCc2cccc(NC(=O)N(C)C)c2)CC1 | -8 | 1.35 |
| COc1ccc(NC(=O)Nc2sc(NS(=O)(=O)c3ccccc3)nc2C)cc1 | 8 | -1.05 |
| Cc1cc(Oc2ccc(NS(=O)(=O)N3CCC[C@@H]3C)cc2)n[nH]1 | -8 | 1.24 |
| NC(=NOCC(=O)Nc1ccc(Cl)cc1)c1ccccc1CN1CCCCC1 | -5 | 0.56 |
| CCC(C)C(Nc1ncc(C#N)cc1Cl)C(N)=O (stereo not given) | 0 | -0.05 |
| CC[C@@H](C(=O)N1Cc2cncnc2C1)c1ccc(OC)cc1 | -6 | 0.88 |
| Cc1cc(-c2noc(CCC(=O)N3CCC(C4OCCO4)CC3)n2)ccc1F | 0 | 0.03 |
| O=C(O)c1cccc(Cn2cnc(-c3ccccc3)c2[C@H]2CCOC2)c1 | 6 | -0.79 |
| CN(C)[C@@H](CNc1oc(-c2cccs2)nc1C#N)c1ccccc1 | 1 | -0.2 |
| CCC1(CC)C(NC(=O)N(C)CC2CC(O)C2)C(C)C1OC (stereo not given) | -2 | 0.29 |
| O=C(c1cnc2ccccc2n1)N1CCC[C@H](O)CC1 | -9 | 1.88 |
| O=C(CN1CCC[C@H]1c1nc2ccccc2s1)Nc1c(F)cccc1F | -6 | 1.03 |
| NC(C(=O)Nc1ccc(-c2nc3cccc(Cl)c3s2)cc1)C1CCCO1 (stereo not given) | -5 | 0.87 |
| CO[C@H]1CCN(C(=O)Cc2c3c(n(Cc4ccccc4)c2C)CCCC3=O)C1 | -6 | 0.63 |
| CN1C(=O)CC[C@H](NS(=O)(=O)CCC2CCCCC2)C1=O | 0 | 0.09 |
| O=C(NCCN1CCOCC1)c1c[nH]c2ccc(Cl)cc2c1=O | 1 | -0.13 |
| COc1ccc(Nc2nc(NCc3cccnc3)nc3[nH]ncc23)cc1 | -1 | 0.15 |
| Cn1cc(-c2csc(COCc3ccccc3)n2)cn1 | -19 | 2.67 |
| CO[C@@H](C)c1noc(CN2CCC(NS(=O)(=O)c3cccs3)CC2)n1 | 0 | 0.04 |
| Cc1ccc([C@H](C)NC(=O)c2ccc3c(c2)OCO3)o1 | -5 | 0.74 |
